From PubChem BioAssay (NCI)
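The compound was tested at five concentrations on cells cultured in 96-well plates, with a 48-hour exposure period. Here, GI50 denotes the concentration required for 50% inhibition of growth. TGI marks complete inhibition of growth.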

Each compound was assayed on NCI-H322M lung (assay: NCI-60 cell line screen, 48 h).
CC(=O)OCC1OC(O[C@@H]2C[C@H]3C(C)(C)[C@H](OC(C)=O)CC[C@]3(C)[C@H]3CC[C@@]45C[C@H](O)C[C@H](C)[C@@H]4CC=C5[C@@]32C)C(O)C(O)C1O (stereo partly drawn) gave a TGI of 21.1 µM. Compound Nc1ccccc1C#Cc1ccccc1C#Cc1ccccc1N has a GI50 of 11.4 µM and a TGI of 33 µM. For C/C(=C/CNc1ncnc2c1ncn2CCC(=O)O)CO, the TGI was over 100 µM. CC1=C(C(=O)OCCc2ccc([N+](=O)[O-])cc2)C(c2ccccc2C(F)(F)F)C(C(=O)OC(C)C)=C(C)N1 (stereo not drawn) was tested, and the TGI was over 100 µM. Compound O=S1(=O)COc2ccccc2-c2ncncc21 has a TGI of over 100 µM. O=S(=O)(c1ccc2c(c1)C(=NO)c1cc(S(=O)(=O)N3CCCCC3)ccc1-2)N1CCCCC1 showed a GI50 of 0.167 µM and a TGI of 0.304 µM. In the case of NC(=O)ON=C1CCN(Cc2ccccc2)CC1, the TGI is reported as over 100 µM. For Cn1ccnc1SC(F)(F)c1nc2ccccc2o1, the TGI was over 100 µM. O=C(O)C(F)(OC(F)(F)C(F)(F)C(F)(F)F)C(F)(F)F (stereo not drawn) showed a TGI of over 100 µM. With CCOC(=O)c1c(Nc2ccccc2)sc2cccnc12 the TGI was over 96.1 µM. Clc1ccc(NCc2nnc(COc3ccc(OCc4nnc(CNc5ccc(Cl)cc5)o4)c(Cl)c3)o2)cc1 showed a TGI of over 100 µM. CC(C)(C)c1ccc(O)c(Br)c1 was tested, and the TGI was over 100 µM. CSc1nc2nc(C)c(C)nc2c(=O)[nH]1 gave a TGI of over 100 µM. COc1ccc(Nc2nc(NCc3ccccc3)c3ccccc3n2)cc1 was tested, and the GI50 was 12.4 µM and the TGI was 25.1 µM. With COc1ccc(Cc2nc3cc(Cl)ccc3o2)cc1 the TGI was over 100 µM. For O=C(c1ccc(F)c(F)c1Nc1ccc(I)cc1F)N1CC(O)([C@H]2CCCCN2)C1, the GI50 was 0.764 µM and the TGI was 14.1 µM. For C=C1C(=O)O[C@H]2[C@H]1CC/C(COC(=O)NCc1c[nH]c3ccc(OC)cc13)=C\CC[C@@]1(C)O[C@@H]21, the GI50 was 11.1 µM and the TGI was 23.2 µM. CN(C)c1cc2c(Nc3ccc4nc(Cc5ccccc5)[nH]c4c3)ncnc2cn1 was tested, and the GI50 was 14.8 µM and the TGI was over 25 µM. Cc1cc2c(cc1Cl)SC(NN(C)C)=NS2(=O)=O showed a TGI of over 10 µM. Compound CC(=O)c1cc2c3c(c1)c1cc4c(cc1c(=O)n3CC2)OCO4 has a TGI of over 100 µM. Clc1ccc(N/N=C/c2ccccn2)nc1 gave a GI50 of 0.363 µM and a TGI of over 100 µM. Clc1cccc(Cn2cc(Cc3cn(Cc4cccc(Cl)c4)c4ccccc34)c3ccccc32)c1 was tested, and the GI50 was over 100 µM and the TGI was over 100 µM. O=C(COC(c1ccc(F)cc1)c1ccc(F)cc1)N1CCN(CCCc2ccccc2)CC1 showed a TGI of 15.6 µM. Work on COc1cccc2c3cccc(OC)c3c3[nH]cnc3c12 yielded a TGI of 10.2 µM. CN(C)C(=O)c1nnsc1NN=O gave a TGI of over 100 µM. COc1c(Nc2ncc(Cl)c(N[C@@H]3[C@H]4C=CC(C4)[C@@H]3C(N)=O)n2)ccc2c1CC[C@@H](N1CCOCC1)CC2 was tested, and the GI50 was 4.48 µM and the TGI was 39 µM. Compound Cc1cc(=O)cc2sc3cc(Cl)ccc3nc1-2 has a TGI of over 85.1 µM. With NC(=O)c1cccc(N)c1 the GI50 was over 100 µM and the TGI was over 100 µM. O=[N+]([O-])c1ccccc1S(=O)(=O)c1ccccc1[N+](=O)[O-] showed a TGI of over 100 µM. In the case of CC(=O)N(/N=C\c1ccc([N+](=O)[O-])cc1)c1ccccc1, the TGI is reported as over 100 µM. CN(C)C/C=C(/c1ccc(Br)cc1)c1cccnc1 was tested, and the TGI was over 100 µM. Work on O=C(Nc1cccc(-n2cc(-c3ccncc3)c(-c3cc(O)cc(Cl)c3)n2)c1)Nc1ccc(Cl)c(Cl)c1 yielded a GI50 of 1.78 µM and a TGI of 7.81 µM. For C=C1CCCC(C)(C)[C@@H]1CC/C(C)=C/Cn1c2cccc(=O)c-2nc2ccccc21, the GI50 was 17.9 µM. For COC(=O)C1C(=O)O[C@@H](c2ccc(OC)cc2)C1C(=O)OC (stereo partly drawn), the TGI was over 100 µM. NC(Cc1cc(Br)c(O)c(Br)c1)C(=O)O (stereo not drawn) showed a TGI of over 100 µM. Work on Cc1ccc(/C=C/C(=O)c2sc(C(N)=S)nc2C)cc1 yielded a TGI of over 100 µM. Compound CCOC(=O)CC/C(C)=N\n1c(Cc2ccc(Cl)cc2)n[nH]c1=O has a TGI of over 100 µM. With C/C(Sc1ccccc1)=C1/CCCN(Cc2ccccc2)C1 the TGI was over 100 µM. Cc1cc(C)c2c(=O)n(CN3CCN(c4ccccc4)CC3)sc2n1 showed a TGI of over 100 µM. With COc1ccc(C2Cc3cc(OC)c(OC)c(OC)c3C2=O)cc1 (stereo not drawn) the TGI was over 100 µM. [Ce+3].[Cl-].[O-]/N=C(\c1ccccc1)c1ccccn1.[O-]/N=C(\c1ccccc1)c1ccccn1.[O-]/N=C(\c1ccccc1)c1ccccn1 showed a GI50 of 37.7 µM and a TGI of over 100 µM.
